# Data from PMC6919601, “Identification of Plasmodium dipeptidyl aminopeptidase allosteric inhibitors by high throughput screening” (PLoS ONE, 2019).
# The campaign covered roughly 110,000 compounds. About 230 (0.21%) showed an effect of 50% or more. The list shows a part of the results.
# Target: DPAP1 (Plasmodium falciparum, UniProt Q8IIJ9)
# Assay: primary screen, percent inhibition; read by cleavage of a fluorogenic dipeptide substrate; higher = more effect of the substance
# Set-up: species or system P. falciparum D10 trophozoite lysates; single well
# 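Further: 30 min substrate incubation versus DMSO and 10 µM JCP410 controls.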
# Sequence of DPAP1 (Q8IIJ9 whole entry, looked up): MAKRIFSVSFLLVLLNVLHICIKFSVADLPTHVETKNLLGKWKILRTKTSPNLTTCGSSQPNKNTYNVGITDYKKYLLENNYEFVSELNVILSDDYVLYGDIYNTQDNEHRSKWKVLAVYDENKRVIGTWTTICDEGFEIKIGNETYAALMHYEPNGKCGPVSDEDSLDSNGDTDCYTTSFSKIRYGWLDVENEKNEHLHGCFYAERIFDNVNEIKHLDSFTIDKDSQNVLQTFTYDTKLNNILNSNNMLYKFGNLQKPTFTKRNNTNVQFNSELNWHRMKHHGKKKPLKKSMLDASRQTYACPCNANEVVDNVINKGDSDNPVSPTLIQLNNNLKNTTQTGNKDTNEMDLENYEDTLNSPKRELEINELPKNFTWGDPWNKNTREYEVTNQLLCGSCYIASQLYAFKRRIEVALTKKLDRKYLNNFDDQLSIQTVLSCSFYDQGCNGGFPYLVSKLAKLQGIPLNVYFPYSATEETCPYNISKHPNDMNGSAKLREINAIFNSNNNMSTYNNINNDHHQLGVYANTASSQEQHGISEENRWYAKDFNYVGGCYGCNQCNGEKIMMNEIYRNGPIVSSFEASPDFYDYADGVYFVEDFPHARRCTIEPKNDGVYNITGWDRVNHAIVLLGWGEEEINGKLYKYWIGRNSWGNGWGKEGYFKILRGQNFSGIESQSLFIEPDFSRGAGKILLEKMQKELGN
row,Compound,% Inhibition @ 10 uM [%]
1,Nc1c(-c2nc(-c3ccccc3)no2)nnn1-c1ccc(F)cc1F,-0.485
2,O=C(NCc1ccc(F)cc1)C1CCN(Cc2cnn(-c3ccccc3)c2-n2cccc2)CC1,-1.08
3,COc1ccc2c(c1)CC/C(=C\c1ccc(OC)c(Cn3cccn3)c1)C2=O,2.59
4,C=CCNC1=C(Cl)C(=O)N(c2ccc(Cl)cc2)C1=O,0.385
5,Cc1ccc(C(=O)CC2(O)C(=O)N(C)c3ccc(Br)cc32)c(C)c1 (stereo not shown),3.21
6,Cc1csc(NC(=O)CCNS(=O)(=O)c2cc(Br)cnc2N)n1,0.813
7,Nc1c(C(=O)NCc2ccccc2)nnn1Cc1ccc(F)cc1Cl,-0.58
8,COc1ccc(-c2cc(C)no2)cc1S(=O)(=O)N1CC=C(c2ccccc2)CC1,1.84
9,O=C(c1ccc([N+](=O)[O-])cc1Cl)N1CCc2ccccc21,-3.15
10,CCN(CC)C(=O)COc1ccc(-c2nnc(NCc3ccccc3)c3ccccc23)cc1,-5.15
11,CCCSCCCNC(=O)c1cc(C)nc2c1c(C)nn2-c1cccc(Cl)c1C,-3
12,Cc1ccc(Cn2c(=O)c3cccnc3n(Cc3ccc(Cl)cc3)c2=O)cc1,-3.44
13,Nc1nc(-c2ccc(-c3ccccc3)cc2)cc(-c2ccccc2O)n1,-8.3
14,O=S(=O)(c1ccc(-c2ccccc2)cc1)N1CCSC1c1ccco1 (stereo not shown),-5.81
15,CC(C(=O)c1ccc2ccccc2c1)N1CCCCC1 (stereo not shown),3.24
16,Cc1cccc(N2C(=O)CC(N3CCc4ccccc4C3)C2=O)c1 (stereo not shown),-8.4
17,O=C(O)CCC(=O)NCCNC(=O)C1CCCNC1=O (stereo not shown),2.03
18,CCCCN(CCCC)C(=O)c1cc(-c2ccccc2)[nH]n1,-2.56
19,CCOc1ccc(CCNc2ncnc3c2nc2n3CCCCC2)cc1OCC,3.48
20,O=c1cc2nc(-c3ccccc3)nc(SCCOc3ccccc3Cl)n2[nH]1,0.234
21,Nc1c(C(=O)c2ccccc2)sc2nc(-c3ccccc3)ccc12,3.54
22,O=S1(=O)N=C(Nc2cccc3c(O)cccc23)c2ccccc21,-0.425

row,Compound,% Inhibition @ 10 uM [%]
1,O=C(c1ccccc1)c1ccc2nc(NCCC3=CCCCC3)c3nncn3c2c1,-7.28
2,O=C(O)CNC(=O)C(O)(c1ccccc1)c1ccccc1,-1.47
3,CCn1c(Oc2ccc3c(C)cc(=O)oc3c2)nc2c1c(=O)n(C)c(=O)n2C,1.76
4,O=C(Nc1cccc(F)c1)c1ccc(N2C(=O)c3ccccc3C2=O)cc1,-3.71
5,Cc1ccc2c(=O)cc(C(=O)N(Cc3cccs3)C3CCS(=O)(=O)C3)oc2c1 (stereo not shown),-1.47
6,COc1ccc(C(=O)Nc2ccc(CC#N)cc2)cc1OC,-5.47
7,CC(=O)c1cc(-c2ccccc2)n(CCC(=O)NC2CCC(C)CC2)c1C (stereo not shown),4.42
8,C=CCNC(=O)/C(=C/c1ccccc1)NC(=O)c1ccccc1OC,-1.19
9,CN1CCN(c2ccc(Nc3ncnc4sc5c(c34)CCCC5)cc2)CC1,8.87
10,O=C(NC(Cc1ccccc1)c1ccc2c(c1)OCCCO2)c1ccccc1 (stereo not shown),0.475
11,CCN(CC)CCn1c(C)nc(=O)c(-c2ccccc2)c1C,0.431
12,CCC(Sc1nc2nccnc2c(=O)n1CCc1ccccc1)C(=O)NC1CCCCC1 (stereo not shown),-6.65
13,CC(C)(C)OC(=O)N1CC2CC(C1)c1cccc(=O)n1C2 (stereo not shown),1.88
14,CC(=O)N1CCN(Cc2cccnc2)CC1,5.2
15,COCCCNC(=O)N1CCN(c2nnc(C)c3c(C)n(-c4ccccc4)nc23)CC1,1.63
16,COc1cc(CNC(=O)c2nc(Cn3nc(C)c(Br)c3C)no2)cc(OC)c1,-4.11
17,COc1ccc(CC(=O)NCc2nnc(SCC(=O)Nc3nccs3)n2-c2ccccc2)cc1,-1.3
18,C=CCNC(=O)C(C(=O)OCC)C1CCCCC1 (stereo not shown),-6.09
19,C=CCN1C(=S)NC2CC1(C)Oc1ccc(Cl)cc12 (stereo not shown),-0.58
20,CC1CCN(C(=O)c2nn(C)c(=O)c3ccccc23)CC1,0.628
21,Cc1ccc(CNC(=O)CN(C)S(=O)(=O)c2cccs2)cc1,-2.56
22,CCN1C(=O)S/C(=C/c2cccn2-c2ccc(C(=O)O)cc2)C1=O,-1.82

row,Compound,% Inhibition @ 10 uM [%]
1,N=C1/C(=C\c2ccc(OCCOc3ccccc3)cc2)C(=O)N=C2SC(N3CCCC3)=NN12,1.72
2,CSc1c2c(nn1-c1ccccc1)CC(C)(C)CC2=O,1.02
3,CC1=NN(c2c(F)c(F)c(F)c(F)c2F)C(=O)/C1=C/c1cccc([N+](=O)[O-])c1,-4.61
4,COc1cccc(C2C(C#N)=C(N)Oc3c2oc(CO)cc3=O)c1 (stereo not shown),0.777
5,O=C(Nc1cc(Cl)c(Cl)cc1Cl)c1ccc(Cl)cc1Cl,-2.6
6,COc1ccc(CCNCC(O)Cn2c3c(c4ccccc42)CCN(C)C3=O)cc1OC (stereo not shown),3.16
7,Cc1ccc(C(=O)N2c3ccc(F)cc3CCC2C)o1 (stereo not shown),-7.81
8,Clc1ccccc1N1CCN(C/C=C/c2ccccc2)CC1,-1.64
9,COc1cc(CN2CCN(Cc3cc(OC)c(OC)c(OC)c3)CC2)cc(OC)c1O,11.1
10,CC(C)n1cc(NC(=O)COc2ccccc2Cl)cn1,-5.72
11,CCn1c(NC(=O)c2cccs2)nc2ccccc21,-4.72
12,Cc1ccc(C2NC(=O)Cc3ccccc32)cc1 (stereo not shown),-0.711
13,Cc1ccc(OCC(=O)Nc2cccc(C#N)c2)cc1,0.795
14,C=CCSc1nc(C)c2cc(C)c(C)cc2n1,4.75
15,CCOCCCNC(=O)C(NC(=O)CNC(C)=O)c1ccc(Cl)cc1 (stereo not shown),-2.04
16,Cc1ccc(CNC(=O)CSc2nncn3c2cc2sccc23)cc1,1.42
17,COC(F)(C(=O)Nc1nc2ccccc2s1)C(F)(F)F (stereo not shown),1.84
18,CCC(C)OC(=O)C1=C(C)NC(=O)NC1c1ccccc1OCc1ccccc1 (stereo not shown),2.7
19,Cc1nnc(N2CCC(C(=O)NCc3ccc4c(c3)OCO4)CC2)c2nn(-c3ccccc3)c(C)c12,-1.39
20,Cc1nc2ccccc2cc1C(=O)Nc1ccc(C(F)(F)F)cc1,-3.43
